Laboratory results: PubChem BioAssay (NCI)
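Tested at 5 concentrations; 48 h exposure; 96-well plates; endpoints linearly interpolated, else capped at highest concentration. GI50 = concentration required for 50% inhibition of growth. TGI marks complete inhibition of growth.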

What follows are compounds tested on NCI-H322M lung (assay: inhibition of tumour cell growth, NCI panel, 48 h).
Work on `O=C(N=Nc1c(O)[nH]c2ccc(Br)cc12)c1ccc2nc(-c3ccc(Cl)cc3)[nH]c2c1` yielded a GI50 of over 38 µM and a TGI of over 38 µM.
`COc1ccc(C(=O)/C=C/c2ccc(Cl)c(Cl)c2)cc1S(N)(=O)=O` gave a GI50 of 2.11 µM and a TGI of 7.59 µM.
`COc1ccc(C(=O)/C=C/c2cccnc2)cc1S(N)(=O)=O` showed a GI50 of 12.2 µM and a TGI of 23.9 µM.
With `COc1cc(-c2nc3ccc(C)cc3[nH]2)ccc1OCc1nnc(-c2ccc(Br)cc2)o1` the GI50 was over 100 µM and the TGI was over 100 µM.
For `O=C(c1ccc(Cl)cc1)C1[C@H](c2ccccc2Br)[C@@H](c2ccccc2)NC12C(=O)Nc1ccc(Cl)cc12` (some centres undefined), the GI50 was 9.56 µM and the TGI was 21.5 µM.
Work on `CN(C)c1nc(NCCNS(=O)(=O)c2ccc(C(=O)/C=C/c3ccccc3)cc2)nc(Nc2ccc(F)cc2)n1` yielded a GI50 of 9.83 µM and a TGI of 27.7 µM.
Compound `O=C(CNc1nc(-c2ccccc2)cs1)Nc1cccc(Cl)c1` has a GI50 of 12 µM and a TGI of 57.5 µM.
